Test results published in PubChem BioAssay AID1030 (National Center for Advancing Translational Sciences (NCATS), 2008).
The campaign covered roughly 220,000 compounds. About 16,000 (7.3%) were called active. Inconclusive results, whose numbers are uncertain, are shown with a selection of clear calls. Calls come from the whole dose curve; as a rule, active = well fitted inhibition curve with a large enough effect (not every such curve was filed as active); inconclusive = small, poorly fitted or top-dose-only effect, or another doubt; inactive = no such curve, though single readings can be large or run the other way. Potencies of inconclusive entries are left out as doubtful fits.

Target: Aldehyde dehydrogenase 1A1 (Homo sapiens) (UniProt P00352)
Sequence of UniProt P00352 (P00352 whole entry, looked up): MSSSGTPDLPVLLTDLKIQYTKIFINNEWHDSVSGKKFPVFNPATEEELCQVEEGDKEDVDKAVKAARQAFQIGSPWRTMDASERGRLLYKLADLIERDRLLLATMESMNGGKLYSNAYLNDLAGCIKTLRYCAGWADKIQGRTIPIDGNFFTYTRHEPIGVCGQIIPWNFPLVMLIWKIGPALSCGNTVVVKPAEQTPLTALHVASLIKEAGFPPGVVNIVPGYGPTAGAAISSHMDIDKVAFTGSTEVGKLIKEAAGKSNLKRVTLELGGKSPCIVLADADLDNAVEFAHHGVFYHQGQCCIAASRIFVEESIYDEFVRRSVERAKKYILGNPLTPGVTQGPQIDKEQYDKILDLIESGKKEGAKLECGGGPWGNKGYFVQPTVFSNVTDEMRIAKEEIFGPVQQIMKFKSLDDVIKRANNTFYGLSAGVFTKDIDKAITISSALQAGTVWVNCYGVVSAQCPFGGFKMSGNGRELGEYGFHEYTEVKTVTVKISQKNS
Test: qHTS Assay for Inhibitors of Aldehyde Dehydrogenase 1 (ALDH1A1);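 for activity, negative = inhibition: plate controls were no enzyme wells and a reference inhibitor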
Conditions: Purified ALDH1A1, NADH fluorescence, propionaldehyde substrate; series mostly up to 75.3 µM
Potency is the fitted concentration of half-maximal effect; tags give direction and shape of the fitted curve.

Row | Compound | Potency | activity, negative = inhibition
1 | Cc1cccc(-n2c(Cc3cc(=O)[nH]c(=O)[nH]3)nnc2SC(C)C)c1 | inconclusive [inhibitor, single point] | 
2 | CCCn1cc(S(=O)(=O)CC(=O)N2CCc3ccccc32)c2ccccc21 | inconclusive [inhibitor, partial curve] | 
3 | CN1C(=O)/C(=C\c2ccc(-c3ccccc3)o2)SC1=S | inconclusive [inhibitor, partial curve] | 
4 | CCCOC(=O)CCNc1n[nH]c(=O)[nH]c1=O | inconclusive [inhibitor, partial curve, poor fit] | 
5 | CCC(c1nnc(SCC(=O)Nc2ccc(C(=O)Nc3ccccc3OC)cc2)o1)N(C)C (configuration not stated) | inconclusive [inhibitor, single point] | 
6 | CCOc1ccc(NC(=O)c2ccc(OC)cc2)cc1 | inconclusive [inhibitor, single point] | 
7 | COc1cc(C(=O)N(CCCO)Cc2cc3ccc(C)c(C)c3[nH]c2=O)cc(OC)c1OC | inconclusive [inhibitor, single point] | 
8 | O=C(c1cn(-c2ccccc2)nc1-c1cccs1)N1CCN(c2ccccc2)CC1 | inconclusive [inhibitor, single point] | 
9 | COc1ccc(OC)c(NC(=O)Cn2cc(C#N)c3cc(Br)ccc32)c1 | inactive | 
10 | CCN(CC)CCNCc1ccc(-c2ccc(Cl)cc2)o1 | inactive | 
11 | CC(=O)OC[C@H]1O[C@@H](O/N=C2/[C@H]3O[C@@H]3[C@@H](O)[C@H]3[C@H]2CCn2c(=O)n(-c4ccccc4)c(=O)n23)[C@H](OC(C)=O)[C@@H](OC(C)=O)[C@@H]1OC(C)=O |  | inactive: -9.64% [at 13.5 µM]
12 | CCN1CC(c2ccccc2)C(c2ccc(Cl)cc2)=N1 (configuration not stated) | inconclusive [inhibitor, single point] | 
13 | Oc1ccc(-c2cn3c(n2)SCC3)cc1O | active: 6.31 µM | 
14 | CCOC(=O)c1ccc(N2N=C(C)/C(=C/C=C/c3ccco3)C2=O)cc1 | active: 0.224 µM | 
15 | COc1ccc(C(=O)c2c[nH]c3ccccc23)cc1 | inactive | 
16 | O=C(NCCc1c[nH]c2ccccc12)C(=O)NCC1OCCCN1S(=O)(=O)c1ccc(F)cc1 (configuration not stated) | inconclusive [inhibitor, single point] | 
17 | COc1ccc2c(c1)cc1n2CCN=C1NN | inconclusive [inhibitor, partial curve] | 
18 | COCCCNC(=O)CSc1nc2ccccc2c(=O)n1CCC(=O)NCCc1ccc(OC)c(OC)c1 | inconclusive [inhibitor, full curve] | 
19 | COc1ccccc1N(CC(=O)NCc1ccccc1)C(=O)CCC(=O)Nc1ccccn1 | inactive | 
20 | CN(c1ccc(OCC(=O)N2CCOCC2)cc1)S(=O)(=O)c1ccc(Cl)cc1 | inactive | 
21 | Cc1cc(=O)oc2cc(OCC(=O)OCC(=O)NC3CC3)ccc12 | inconclusive [inhibitor, partial curve] | 

Row | Compound | Potency | activity, negative = inhibition
22 | Cc1nc(N2CCOCC2)nc2c1CCC2 | inconclusive [inhibitor, single point] | 
23 | CCN(CC(=O)c1c(N)n(C)c(=O)n(C)c1=O)c1cccc2ccccc12 | inconclusive [inhibitor, single point] | 
24 | CCOc1ccc(C2CC(c3ccc(OC)c(OC)c3)n3nc(N)nc3N2)cc1 (configuration not stated) | inconclusive [inhibitor, single point] | 
25 | O=C(Nc1ccc2c(c1)CCC2)C1CCN(c2ncccn2)CC1 | inconclusive [inhibitor, single point] | 
26 | CN(C)c1ccc(CNC(=O)c2ccc(CNc3c(N4CCCCC4)c(=O)c3=O)cc2)cc1 | active: 28.2 µM | 
27 | CC/C(=N\NC(=O)c1ccc(CN(C)S(=O)(=O)c2ccc(C)cc2)cc1)c1ccc(OC(F)F)cc1 | active: 12.6 µM | 
28 | CC(C)c1nnc(NC(=O)C2CCN(S(=O)(=O)c3ccc(-n4cnnn4)cc3)CC2)s1 | inconclusive [inhibitor, partial curve, poor fit] | 
29 | NC1(N)OC(CN2C(=O)c3ccccc3C2=O)CS1 (configuration not stated) | inconclusive [inhibitor, single point] | 
30 | CCCS(=O)(=O)c1c(S(=O)(=O)CCC)c2cc(-c3ccncc3)ccn2c1C(=O)OC | inconclusive [inhibitor, partial curve] | 
31 | COc1ccc(C(C)C)cc1S(=O)(=O)n1cnc(C)c1 | inconclusive [inhibitor, partial curve] | 
32 | COc1ccc(S(=O)(=O)CCC(=O)N2CC(=O)N(CCc3ccccc3)C(=O)C2)cc1 | inconclusive [inhibitor, single point] | 
33 | Cc1ccccc1Nc1nc(CSc2nnc(-c3ccoc3C)n2C)cs1 | inconclusive [inhibitor, single point] | 
34 | CN(C)NC(=S)Nc1ccc2nc(-c3ccccn3)c(-c3ccccn3)nc2c1 | inconclusive [inhibitor, single point] | 
35 | O=C1C=C(NCc2ccccc2)c2ccccc2C1=O | inconclusive [inhibitor, single point] | 
36 | CC1CCN(C(=O)CN2C(=O)C(C)(C)Oc3ccc(C(=O)NC4CCCC4)cc32)CC1 | inconclusive [inhibitor, single point] | 
37 | COc1ncc2nc(-c3cc(F)cc(F)c3)c(=O)n(C)c2n1 | inactive | 
38 | Cc1ccccc1C(=O)N1CCN(c2ccc(NC(=O)CSc3ccc(Cl)cc3)cc2)CC1 | inconclusive [inhibitor, partial curve] | 
39 | CC(=O)c1cccc(NC(=O)COC(=O)c2cccs2)c1 | active: 14.1 µM | 
40 | CC1=C(C(=O)OCc2ccccc2)C(c2ccc(N3CCOCC3)cc2)NC(=O)N1 (configuration not stated) | inconclusive [inhibitor, single point] | 
41 | O=C(c1ccc(Cl)c(S(=O)(=O)N2CCCCCC2)c1)N1CCN(c2ccccc2O)CC1 | inconclusive [inhibitor, single point] | 
42 | COCCNC(=O)C1(CC(C)C)C=CCN1C(=O)c1ccccc1 (configuration not stated) | inactive | 
